# In publication PMC6899003:
# Residue numbers refer to the chain shown, from its start. No constants are given. Whether binding was seen depends on the method and setting. In cells and extracts the contact can be indirect. Some binding calls cover weakened binding; strength is not graded here. Where a sequence is shown, tags or fusion partners need not be part of it.
# B1: Interferon-regulatory factor 3 (IRF3), HA-tagged (protein, UniProt Q14653 1-427)
# chain: MGTPKPRILPWLVSQLDLGQLEGVAWVNKSRTRFRIPWKHGLRQDAQQEDFGIFQAWAEATGAYVPGRDKPDLPTWKRNFRSALNRKEGLRLAEDRSKDPHDPHKIYEFVNSGVGDFSQPDTSPDTNGGGSTSDTQEDILDELLGNMVLAPLPDPGPPSLAVAPEPCPQPLRSPSLDNPTPFPNLGPSENPLKRLLVPGEEWEFEVTAFYRGRQVFQQTISCPEGLRLVGSEVGDRTLPGWPVTLPDPGMSLTDRGVMSYVRHVLSCLGGGLALWRAGQWLWAQRLGHCHTYWAVSEELLPNSGHGPDGEVPKDKEGGVFDLGPFIVDLITFTEGSGRSPRYALWFCVGESWPQDQPWTKRLVMVKVVPTCLRALVEMARVGGASSLENTVDLHISNSHPLSLTSDQYKAYLQDLVEGMDFQGPGES
# Columns and labels:
# Assay in all cases: co-IP; 293T cells transiently transfected with the indicated plasmids (5 µg each); lysed in 0.5% Triton X-100 buffer (20 mM Tris-HCl pH 7.5, 150 mM NaCl, 1 mM EDTA, 10% glycerol); anti-Flag or anti-HA antibody overnight at 4°C, protein A/G beads; immunoblot
# DDX56 E167Q (human) = target: T1, DDX56 E167Q (human) (UniProt Q9NY93)
# T1 sequence: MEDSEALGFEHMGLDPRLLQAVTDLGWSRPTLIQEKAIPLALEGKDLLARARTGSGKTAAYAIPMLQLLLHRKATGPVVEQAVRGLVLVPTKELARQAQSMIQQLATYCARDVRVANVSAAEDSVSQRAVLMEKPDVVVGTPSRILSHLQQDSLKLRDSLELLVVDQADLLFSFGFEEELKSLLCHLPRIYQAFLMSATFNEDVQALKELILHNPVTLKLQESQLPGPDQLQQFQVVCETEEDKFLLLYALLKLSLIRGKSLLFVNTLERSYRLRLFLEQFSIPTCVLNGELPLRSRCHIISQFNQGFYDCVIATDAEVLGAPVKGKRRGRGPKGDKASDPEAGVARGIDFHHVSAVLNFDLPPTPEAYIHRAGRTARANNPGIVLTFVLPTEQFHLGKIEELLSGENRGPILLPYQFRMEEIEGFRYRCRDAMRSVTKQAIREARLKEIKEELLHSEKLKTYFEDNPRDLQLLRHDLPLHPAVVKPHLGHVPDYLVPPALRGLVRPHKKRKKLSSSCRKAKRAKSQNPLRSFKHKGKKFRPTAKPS
# [1] = target: T2, DEAD box polypeptide 56 (DDX56), Flag-tagged (human) (UniProt Q9NY93)
# T2 sequence: T1 sequence with Q167E
# [2] = target: T3, DDX56 (aa 191–547) (human) (UniProt Q9NY93)
# T3 sequence: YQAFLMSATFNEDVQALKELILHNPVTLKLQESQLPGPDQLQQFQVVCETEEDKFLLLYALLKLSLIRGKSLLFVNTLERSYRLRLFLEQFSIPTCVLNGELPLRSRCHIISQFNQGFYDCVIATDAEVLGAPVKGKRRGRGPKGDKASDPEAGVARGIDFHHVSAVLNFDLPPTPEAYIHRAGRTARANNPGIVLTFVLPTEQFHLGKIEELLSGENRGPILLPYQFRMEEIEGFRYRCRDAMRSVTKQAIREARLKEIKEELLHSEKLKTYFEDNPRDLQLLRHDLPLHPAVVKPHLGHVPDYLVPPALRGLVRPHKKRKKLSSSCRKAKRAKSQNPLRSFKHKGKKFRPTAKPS
# DDX56 D166N (human) = target: T4, DDX56 D166N (human) (UniProt Q9NY93)
# T4 sequence: T1 sequence with D166N, Q167E
# DDX56 (aa 1–190) (human) = target: T5, DDX56 (aa 1–190) (human) (UniProt Q9NY93)
# T5 sequence: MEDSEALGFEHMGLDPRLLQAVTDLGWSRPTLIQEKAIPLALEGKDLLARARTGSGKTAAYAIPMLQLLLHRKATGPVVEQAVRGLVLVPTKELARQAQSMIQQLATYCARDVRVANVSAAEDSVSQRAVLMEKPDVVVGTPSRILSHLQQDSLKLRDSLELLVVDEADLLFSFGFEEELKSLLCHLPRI
binder,measurement,setting,value
B1,binding,DDX56 E167Q (human),binds
same,binding,[1],binds
same,binding,[2],binds
same,binding,DDX56 D166N (human),no binding
same,binding,DDX56 (aa 1–190) (human),binds
